# According to the supplement of paper PMC3334620:
# Whole data set: some 33,000 sequences, median “E-score (-0.5 to 0.5)” near -0.017, cut for the highest 2% near 0.3. This is one part of the list.
# Target: T1, Sut1 (UniProt P53032)
# T1 sequence: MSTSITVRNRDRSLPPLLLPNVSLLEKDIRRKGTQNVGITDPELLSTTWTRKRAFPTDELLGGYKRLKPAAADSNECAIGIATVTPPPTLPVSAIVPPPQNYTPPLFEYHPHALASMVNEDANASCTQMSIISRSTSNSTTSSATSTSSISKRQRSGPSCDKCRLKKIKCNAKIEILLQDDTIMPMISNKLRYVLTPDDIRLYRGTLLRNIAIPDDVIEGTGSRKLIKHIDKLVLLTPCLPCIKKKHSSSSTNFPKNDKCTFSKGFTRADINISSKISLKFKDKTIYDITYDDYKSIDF
# Assay: PBM E-score (8-mer binding enrichment) (E-score (-0.5 to 0.5)); higher = stronger / more preferred TF binding; most listed sequences are background and not binding sites
# Settings: protein concentration: 200 nM; construct: GST-full length
# Outline: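 E-scores (a modified Wilcoxon-Mann-Whitney statistic) were assigned by the Universal PBM Analysis Suite to every ungapped eight-base word pooled with its reverse complement. The input came from universal all-10-mer Agilent arrays made double-stranded by primer extension and probed with GST-tagged yeast transcription factors at about 100-200 nM. Fluorescent anti-GST detected bound protein, and masliner normalised the scans.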
row,Sequence,PBM E-score
1,GGGAAAGA,0.00082
2,TAAAGATA,0.276
3,GGGTGCAA,-0.0357
4,AAAGACTT,0.0016
5,ACTGAGCT,0.0348
6,CTGAGATA,0.193
7,GTCAATGA,-0.158
8,AAAATGCG,0.104
9,CAAGGCGC,-0.0735
10,AGTCGTCC,-0.11
11,AAGCATAC,0.164
12,ACTGCCAC,-0.161
13,GGAGCATA,0.0974
14,GTTTTCAA,0.222
15,ACTTGGTC,0.183
16,ACTATGGG,-0.155
17,CACCGTTC,-0.0932
18,CCGCCACG,-0.0608
19,ATCATGGC,-0.0732
20,ACATGTCG,-0.0156
21,GGCGCTGA,-0.0911
22,AATCGTTA,0.141
23,ATATGCCC,-0.19
24,TCCACGGA,0.268
25,ATAGGAAG,-0.0472

row,Sequence,PBM E-score
1,ATGCCAGG,-0.214
2,AGGAACTA,0.00457
3,CGTGATCA,-0.101
4,ACTGAGGG,-0.268
5,CTATCATC,0.0847
6,CGGTCCAA,-0.113
7,ATAAAGCA,0.114
8,ATATCAAG,0.247
9,CCCCTGAG,-0.303
10,AGATGTAA,0.154
11,CATACAGG,0.111
12,CTCGCAGC,-0.165
13,CGACATAA,0.164
14,GAAGTTGC,-0.0944
15,AGCTATAC,-0.0483
16,ACCGATGG,-0.0629
17,ACGTGTTG,-0.00182
18,CGTCCCAG,-0.242
19,GTAGGCCA,-0.129
20,CAGTGGCG,-0.211
21,AGATGCTC,0.0658
22,CGCATGCC,0.00842
23,CACGATCA,0.0539
24,ACCTGCGG,-0.0399
25,AGGTACTC,0.103

row,Sequence,PBM E-score
1,ATGGCTCA,-0.166
2,AATGTCCT,-0.0934
3,AGCTGAAA,0.205
4,AGACCTCA,-0.176
5,AACCTGAC,-0.0838
6,AGGACTCA,-0.114
7,GACGACTC,-0.128
8,CCCAACGA,-0.175
9,ACCTTAGT,0.0269
10,CCAACGCA,-0.0662
11,TAAGCAGA,-0.025
12,ACTCGTGC,0.0028
13,AGTCGGCG,0.0144
14,GAAGTTTA,0.319
15,GAGGGATC,-0.446
16,CCCAGGGC,-0.323
17,GGTCAAAA,-0.0216
18,CATGGCTC,-0.0594
19,CATGTGAA,-0.0622
20,CCAATGTC,-0.0534
21,ACCGGACC,0.364
22,AAAAGGAA,0.227
23,GGGCCAAC,-0.129
24,CTTTGGCA,-0.273
25,AACAGGAT,-0.268

row,Sequence,PBM E-score
1,CTACCTAA,0.00881
2,GGAATGTA,0.271
3,GACTCTGC,-0.116
4,AAAACTAC,0.292
5,AGCTGGAC,-0.0896
6,ACCGACCT,-0.17
7,CCCTAGTA,-0.126
8,CTCCACGC,-0.169
9,CGCTCGAG,0.07
10,AGGGTGGC,-0.163
11,GCGTCCCC,-0.231
12,CATGGTGA,-0.101
13,ACTCGCCT,-0.167
14,CTACTCCA,0.0836
15,GACTGAGA,0.0525
16,GCTACTTA,-0.00021
17,ATGGCGTA,-0.14
18,ACTAACGG,0.167
19,GATAACAA,0.205
20,GATGGCCC,-0.352
21,GAAGACTA,0.0633
22,AACCTAAT,0.0281
23,AAGCCAGA,0.0326
24,CTGCCTGA,-0.0674
25,AATATGAA,0.19

row,Sequence,PBM E-score
1,ATTCCGCG,0.18
2,ACTACCGA,-0.114
3,GTATCGGA,0.281
4,ACACGAAT,0.138
5,CAGCTCGG,-0.0612
6,GTAGAATA,0.198
7,GGACGCAC,-0.205
8,CTAGCAAC,0.0225
9,ACGTGACG,-0.0786
10,TCCACGCA,0.0378
11,ATCACAAT,0.0675
12,CACGGAAA,0.188
13,GAGTCCGC,0.282
14,TAGATGGA,-0.134
15,CCACAGCC,-0.273
16,CCCAGTCC,-0.0863
17,CCCACTGA,-0.239
18,ACGGACAT,0.404
19,AGCAGACA,-0.348
20,CACAAAGG,-0.0165
21,GGGTGTAA,0.0141
22,AATTCAAA,0.283
23,ACCAAGGG,-0.128
24,ATAGTCAA,0.09
25,AGGGTGCC,-0.347

row,Sequence,PBM E-score
1,GGTCGCGA,-0.12
2,CTCCAGAG,-0.228
3,GTGACATA,0.0538
4,AGGACTGG,-0.221
5,CCTCCTAG,-0.325
6,ACCTAATA,0.162
7,ATCCTAAA,0.0773
8,GGACATGA,0.192
9,GCAAGTCA,-0.0534
10,ACTGACAA,0.0597
11,ACAACTAA,0.286
12,CCAGAAGG,-0.238
13,GTGCTTAA,0.117
14,ATCGTCAC,-0.136
15,TAGGATAA,0.189
16,CGCTAACC,-0.214
17,GACCTCCC,-0.211
18,ACATTTTC,0.135
19,TCGGGGCA,-0.0853
20,TCATCGGA,0.395
21,ACACGATG,-0.153
22,AGGAAGAC,-0.15
23,GCATTAAC,-0.0101
24,ACGCCTCA,-0.212
25,ATCGGCGC,-0.0591

row,Sequence,PBM E-score
1,GGTATAAC,0.0479
2,AAATAAGG,0.0902
3,AGCTCCAC,-0.0851
4,CACCAGAG,-0.364
5,TAGCGACA,0.0395
6,GCGCCCGA,-0.17
7,GTTACTTA,0.194
8,AGTTTTAG,0.132
9,AAGACGCA,0.063
10,CGTCTTGA,0.0919
11,ACGATGGC,-0.022
12,AACAGAAA,0.156
13,GTACACAA,-0.0364
14,GTACAACA,0.226
15,CATGCCGG,0.139
16,ATACATGC,0.0744
17,CGCGTTCA,0.0695
18,CTATGACA,-0.0401
19,GCAGGAAC,-0.135
20,ATGGTTTA,0.139
21,CCATTATA,0.135
22,CTCGTTGC,-0.0613
